Measured values published in the supplement of paper PMC10369915.
This is one part of the list. No stated cut-off is given here; in the data, active = 3.2 or more and inactive = the rest. The signal is at background level for most entries.

Experiments:
Experiment in all cases: enrichment score (SH2-bound / input frequency) (ratio); bacterial display of known human phosphotyrosine sites (pTyr-Var adds point mutants) read by sequencing; higher = stronger binding; tyrosines were phosphorylated by kinases first
Details in all cases: peptide library: pTyr-Var
SHP2 C-SH2 domain E139D = target: SHP2 C-SH2 domain E139D
[1] = target: SHP2 C-SH2 domain wild-type
SHP2 N-SH2 domain L43F = target: SHP2 N-SH2 domain L43F
SHP2 N-SH2 domain T42A = target: SHP2 N-SH2 domain T42A
SHP2 N-SH2 domain T52S = target: SHP2 N-SH2 domain T52S
[2] = target: SHP2 N-SH2 domain wild-type

Measured: enrichment score
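Further: displayed peptides selected on beads carrying the immobilized SH2 domain, with library peptides lacking any tyrosine serving as negative controls.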

B1: HLCS_Y236_G241W (peptide)
chain: QKFMAYLSQGW
inactive: SHP2 C-SH2 domain E139D 1.84 | [1] 1.56 | SHP2 N-SH2 domain L43F 1.84 | SHP2 N-SH2 domain T42A 1.7 | SHP2 N-SH2 domain T52S 1.58 | [2] 1.64

B2: HLA-B_Y83_R86G (peptide)
chain: QEGPEYWDGNT
inactive: SHP2 C-SH2 domain E139D 0.808 | [1] 0.724 | SHP2 N-SH2 domain L43F 0.649 | SHP2 N-SH2 domain T42A 0.663 | SHP2 N-SH2 domain T52S 0.586 | [2] 0.773

B3: HLA-C_Y183_L180D (peptide)
chain: EQDRAYLEGTC
inactive: SHP2 C-SH2 domain E139D 0.515 | [1] 0.506 | SHP2 N-SH2 domain L43F 0.568 | SHP2 N-SH2 domain T42A 0.482 | SHP2 N-SH2 domain T52S 0.541 | [2] 0.638

B4: HLCS_Y635_D634Y_YF (peptide)
chain: PLRAFYLIARV
inactive: SHP2 C-SH2 domain E139D 1.54 | [1] 1.34 | SHP2 N-SH2 domain L43F 1.2 | SHP2 N-SH2 domain T42A 1.26 | SHP2 N-SH2 domain T52S 0.944 | [2] 1.05

B5: HLA-C_Y31_D33F (peptide)
chain: SHSMRYFFTAV
inactive: SHP2 C-SH2 domain E139D 3.04 | [1] 2.82 | SHP2 N-SH2 domain L43F 2.83 | SHP2 N-SH2 domain T42A 2.61 | SHP2 N-SH2 domain T52S 2.84 | [2] 2.76

B6: HLA-C_Y31_D33S (peptide)
chain: SHSMRYFSTAV
inactive: SHP2 C-SH2 domain E139D 0.893 | [1] 0.756 | SHP2 N-SH2 domain L43F 0.797 | SHP2 N-SH2 domain T42A 0.841 | SHP2 N-SH2 domain T52S 0.785 | [2] 0.842

B7: HLCS_Y635_D634Y (peptide)
chain: PLRAYYLIARV
active: SHP2 C-SH2 domain E139D 4.08 | [1] 3.87 | SHP2 N-SH2 domain L43F 3.85 | SHP2 N-SH2 domain T52S 3.34 | [2] 3.96
inactive: SHP2 N-SH2 domain T42A 2.99

B8: HLA-C_Y137 (peptide)
chain: RLLRGYDQSAY
inactive: SHP2 C-SH2 domain E139D 1.28 | [1] 1.11 | SHP2 N-SH2 domain L43F 1.14 | SHP2 N-SH2 domain T42A 0.927 | SHP2 N-SH2 domain T52S 1.11 | [2] 1.48

B9: HLA-C_Y137_D138N_YF (peptide)
chain: RLLRGYNQSAF
inactive: SHP2 C-SH2 domain E139D 1.24 | [1] 1.07 | SHP2 N-SH2 domain L43F 1.12 | SHP2 N-SH2 domain T42A 0.995 | SHP2 N-SH2 domain T52S 1.3 | [2] 1.22

B10: HLA-DPB1_Y59_F64L_YF (peptide)
chain: LERFIYNREEL
inactive: SHP2 C-SH2 domain E139D 1.31 | [1] 1.05 | SHP2 N-SH2 domain L43F 1.2 | SHP2 N-SH2 domain T42A 0.912 | SHP2 N-SH2 domain T52S 1.32 | [2] 1.58

B11: HLA-DRB1_Y112_YF (peptide)
chain: FCRHNYGVVES
inactive: SHP2 C-SH2 domain E139D 2.14 | [1] 2.04 | SHP2 N-SH2 domain L43F 1.98 | SHP2 N-SH2 domain T42A 1.78 | SHP2 N-SH2 domain T52S 2.17 | [2] 1.97

B12: HLCS_Y635 (peptide)
chain: PLRADYLIARV
inactive: SHP2 C-SH2 domain E139D 0.866 | [1] 0.843 | SHP2 N-SH2 domain L43F 0.846 | SHP2 N-SH2 domain T42A 1.02 | SHP2 N-SH2 domain T52S 0.994 | [2] 1.13

B13: HLA-DPB1_Y59_F64L (peptide)
chain: LERYIYNREEL
inactive: SHP2 C-SH2 domain E139D 1.09 | [1] 0.997 | SHP2 N-SH2 domain L43F 0.806 | SHP2 N-SH2 domain T42A 0.804 | SHP2 N-SH2 domain T52S 1.02 | [2] 0.827

B14: HLCS_Y236 (peptide)
chain: QKFMAYLSQGG
inactive: SHP2 C-SH2 domain E139D 1.8 | [1] 1.28 | SHP2 N-SH2 domain L43F 1.19 | SHP2 N-SH2 domain T42A 1.39 | SHP2 N-SH2 domain T52S 1.33 | [2] 1.27

B15: HMGB1_Y144 (peptide)
chain: DDKQPYEKKAA
inactive: SHP2 C-SH2 domain E139D 0.466 | [1] 0.584 | SHP2 N-SH2 domain L43F 0.365 | SHP2 N-SH2 domain T42A 0.537 | SHP2 N-SH2 domain T52S 0.406 | [2] 0.49

B16: HLA-C_Y137_S140L_YF (peptide)
chain: RLLRGYDQLAF
inactive: SHP2 C-SH2 domain E139D 1.32 | [1] 1.34 | SHP2 N-SH2 domain L43F 1.12 | SHP2 N-SH2 domain T42A 1.57 | SHP2 N-SH2 domain T52S 1.61 | [2] 1.4

B17: HLA-DRB1_Y112_V114A (peptide)
chain: YCRHNYGAVES
inactive: SHP2 C-SH2 domain E139D 2.14 | [1] 1.93 | SHP2 N-SH2 domain L43F 2.14 | SHP2 N-SH2 domain T42A 1.51 | SHP2 N-SH2 domain T52S 2.03 | [2] 1.72

B18: HLA-DQB1_Y62_Y62H_YF (peptide)
chain: RFVTRHIFNRE
inactive: SHP2 C-SH2 domain E139D 0.393 | [1] 0.246 | SHP2 N-SH2 domain L43F 0.234 | SHP2 N-SH2 domain T42A 0.237 | SHP2 N-SH2 domain T52S 0.288 | [2] 0.192

B19: HLA-C_Y183_T187L (peptide)
chain: EQLRAYLEGLC
inactive: SHP2 C-SH2 domain E139D 1.21 | [1] 1.22 | SHP2 N-SH2 domain L43F 1.03 | SHP2 N-SH2 domain T42A 1.17 | SHP2 N-SH2 domain T52S 1.1 | [2] 1.7

B20: HLA-DRB1_Y112_Y107V (peptide)
chain: VCRHNYGVVES
inactive: SHP2 C-SH2 domain E139D 1.53 | [1] 1.61 | SHP2 N-SH2 domain L43F 1.59 | SHP2 N-SH2 domain T42A 1.49 | SHP2 N-SH2 domain T52S 1.47 | [2] 1.51

B21: HLA-DQB1_Y62_Y58G_YF (peptide)
chain: RGVTRYIFNRE
inactive: SHP2 C-SH2 domain E139D 0.336 | [1] 0.269 | SHP2 N-SH2 domain L43F 0.282 | SHP2 N-SH2 domain T42A 0.331 | SHP2 N-SH2 domain T52S 0.25 | [2] 0.314

B22: HLA-DRB1_Y107_A103Q (peptide)
chain: AQVDTYCRHNY
inactive: SHP2 C-SH2 domain E139D 1.08 | [1] 1.16 | SHP2 N-SH2 domain L43F 1.21 | SHP2 N-SH2 domain T42A 0.777 | SHP2 N-SH2 domain T52S 1.16 | [2] 1.33

B23: HLA-DPB1_Y59_E62Q (peptide)
chain: LERYIYNRQEF
inactive: SHP2 C-SH2 domain E139D 1.16 | [1] 0.907 | SHP2 N-SH2 domain L43F 0.788 | SHP2 N-SH2 domain T42A 0.697 | SHP2 N-SH2 domain T52S 0.845 | [2] 0.951

B24: HLA-DRB1_Y107_Y107V_YF (peptide)
chain: AAVDTVCRHNF
inactive: SHP2 C-SH2 domain E139D 0.907 | [1] 1.14 | SHP2 N-SH2 domain L43F 1.19 | SHP2 N-SH2 domain T42A 2.35 | SHP2 N-SH2 domain T52S 1.32 | [2] 1.64

B25: HLA-DPB1_Y59_R61P_YF (peptide)
chain: LERFIYNPEEF
inactive: SHP2 C-SH2 domain E139D 1.29 | [1] 0.937 | SHP2 N-SH2 domain L43F 1.09 | SHP2 N-SH2 domain T42A 1.33 | SHP2 N-SH2 domain T52S 1.06 | [2] 1

B26: HLA-DPB1_Y57 (peptide)
chain: RFLERYIYNRE
inactive: SHP2 C-SH2 domain E139D 1.95 | [1] 2.06 | SHP2 N-SH2 domain L43F 2.38 | SHP2 N-SH2 domain T42A 1.66 | SHP2 N-SH2 domain T52S 2.07 | [2] 1.63

B27: HMGB1_Y155 (peptide)
chain: KLKEKYEKDIA
inactive: SHP2 C-SH2 domain E139D 0.8 | [1] 0.844 | SHP2 N-SH2 domain L43F 1.02 | SHP2 N-SH2 domain T42A 0.94 | SHP2 N-SH2 domain T52S 0.919 | [2] 0.733

B28: HLA-DPB1_Y57_R61P (peptide)
chain: RFLERYIYNPE
inactive: SHP2 C-SH2 domain E139D 2.23 | [1] 1.62 | SHP2 N-SH2 domain L43F 1.59 | SHP2 N-SH2 domain T42A 1.92 | SHP2 N-SH2 domain T52S 1.97 | [2] 1.94

B29: HLA-DPB1_Y57_Y57D_YF (peptide)
chain: RFLERDIFNRE
inactive: SHP2 C-SH2 domain E139D 1.05 | [1] 0.818 | SHP2 N-SH2 domain L43F 1.2 | SHP2 N-SH2 domain T42A 1.06 | SHP2 N-SH2 domain T52S 1.6 | [2] 0.653

B30: HLA-DRB1_Y107_T106N (peptide)
chain: AAVDNYCRHNY
inactive: SHP2 C-SH2 domain E139D 1.12 | [1] 1.09 | SHP2 N-SH2 domain L43F 1.18 | SHP2 N-SH2 domain T42A 0.997 | SHP2 N-SH2 domain T52S 1.19 | [2] 1.2

B31: HLA-DRB1_Y107_A103Q_YF (peptide)
chain: AQVDTYCRHNF
inactive: SHP2 C-SH2 domain E139D 0.658 | [1] 1.29 | SHP2 N-SH2 domain L43F 0.896 | SHP2 N-SH2 domain T42A 0.948 | SHP2 N-SH2 domain T52S 0.893 | [2] 1.08

B32: HLA-DRB1_Y107_YF (peptide)
chain: AAVDTYCRHNF
inactive: SHP2 C-SH2 domain E139D 1.18 | [1] 1.58 | SHP2 N-SH2 domain L43F 1.17 | SHP2 N-SH2 domain T42A 1.17 | SHP2 N-SH2 domain T52S 1.13 | [2] 1.71

B33: HLA-DQB1_Y62_Y58L_YF (peptide)
chain: RLVTRYIFNRE
inactive: SHP2 C-SH2 domain E139D 1.76 | [1] 0.459 | SHP2 N-SH2 domain L43F 0.348 | SHP2 N-SH2 domain T42A 0.341 | SHP2 N-SH2 domain T52S 0.372 | [2] 0.274

B34: HLA-C_Y183 (peptide)
chain: EQLRAYLEGTC
inactive: SHP2 C-SH2 domain E139D 0.739 | [1] 0.931 | SHP2 N-SH2 domain L43F 0.811 | SHP2 N-SH2 domain T42A 0.753 | SHP2 N-SH2 domain T52S 0.829 | [2] 0.817

B35: HLA-DPB1_Y59_E62Q_YF (peptide)
chain: LERFIYNRQEF
inactive: SHP2 C-SH2 domain E139D 1.1 | [1] 0.831 | SHP2 N-SH2 domain L43F 0.893 | SHP2 N-SH2 domain T42A 0.855 | SHP2 N-SH2 domain T52S 1.15 | [2] 1.06

B36: HLA-DPB1_Y59_Y57D (peptide)
chain: LERDIYNREEF
inactive: SHP2 C-SH2 domain E139D 1.06 | [1] 1.06 | SHP2 N-SH2 domain L43F 0.83 | SHP2 N-SH2 domain T42A 0.627 | SHP2 N-SH2 domain T52S 0.693 | [2] 0.934

B37: HLCS_Y635_D634N (peptide)
chain: PLRANYLIARV
inactive: SHP2 C-SH2 domain E139D 1.68 | [1] 1.92 | SHP2 N-SH2 domain L43F 1.74 | SHP2 N-SH2 domain T42A 1.89 | SHP2 N-SH2 domain T52S 1.76 | [2] 1.86
